# Reference: PubChem BioAssay AID624296 (National Center for Advancing Translational Sciences (NCATS), 2012)
# Hit rate of the full screen: of about 350,000 compounds, about 9,900 (2.8%) were called active. Inconclusive means that the source gave no clear call. Such entries were picked first, then a sample of the others. Calls follow the shape of the dose curve; as a rule, active = well fitted activation curve with a large enough effect; inconclusive = small, poorly fitted or top-dose-only effect; inactive = no such curve, though single readings can be large or run the other way. Potencies of inconclusive entries are left out as doubtful fits.
# Test: A quantitative high throughput screen for small molecules that induce DNA re-replication in MCF 10a normal breast cells. Also: nearly all actives have a fitted effect of over 50% in size. As to activity, positive = re-replication: % of control where 0% means no effect.
# Conditions: MCF 10A DNA re-replication, Hoechst nuclear intensity, 48 h
# [1] = activity, positive = re-replication: at 46.1 µM (top of the series)
# Potency is read from the fitted curve at half-maximal effect; tags tell the direction and shape of the fitted curve.
structure (smiles),measurement,setting,value
Nn1c(Cc2cccc3ccccc23)nnc1SCn1nnc2ccccc2c1=O,Potency,[1],inactive
CCN(Cc1ccccc1)C(c1ccccn1)c1nnnn1C1CCCCC1 (stereo unspecified),Potency,[1],"inconclusive [activator, partial curve, poor fit]"
O=C(Cn1nnc(-c2ccc3c(c2)OCO3)n1)Nc1ccccc1C(=O)O,Potency,[1],"inconclusive [activator, full curve]"
O=C(CCl)N1CCN(S(=O)(=O)c2ccc3c(c2)OCCCO3)CC1,Potency,[1],active: 4.11 µM
Cn1c2ccccc2c(=O)c2ccc(NCCc3cccs3)cc21,Potency,[1],"inconclusive [activator, full curve]"
Cc1cc(C)nc(NN=C(c2ccccc2)c2ccccc2)n1,Potency,[1],"inconclusive [activator, full curve, poor fit]"
O=c1c(O)c(-c2ccccc2)oc2ccccc12,Potency,[1],"inconclusive [activator, partial curve, poor fit]"
Cn1c(N2CCN(C(=O)NCc3ccccc3)CC2)nc2ccccc21,Potency,[1],inactive
CCn1c(C)cc(/C=C2\SC(=O)N(CC(=O)Nc3ccc(C)c(C)c3)C2=O)c1C,Potency,[1],"inconclusive [activator, single point]"
Oc1ccc(N2CCN(C(=S)NCCc3ccccc3)CC2)cc1,Potency,[1],"inconclusive [activator, full curve, poor fit]"
C=CCc1cc(Cl)ccc1OCCNCCOC,Potency,[1],"inconclusive [activator, single point]"
CCOC(CNCc1cc(C)c2[nH]c3ccccc3c2c1C)OCC,Potency,[1],"inconclusive [activator, partial curve, poor fit]"
O=C1C(Cl)=C(N2CCC(C(=O)O)CC2)C(=O)c2ccccc21,Potency,[1],"inconclusive [activator, single point]"
COc1cc(/C=N/N2C(=O)c3ccccc3NC2(C)c2cccc([N+](=O)[O-])c2)cc(Br)c1O (stereo unspecified),Potency,[1],inactive
COc1ccccc1NS(=O)(=O)c1ccc(-c2cnc(C3CC3)o2)cc1,Potency,[1],"inconclusive [activator, partial curve]"
CCOc1ccccc1OCC(=O)Nc1nnc(C)s1,Potency,[1],"inconclusive [activator, full curve, poor fit]"
O=C1Nc2ccccc2/C1=C\C(=O)c1ccccc1,Potency,[1],"inconclusive [activator, single point]"
O=C(c1ccc(Br)c(S(=O)(=O)N2CCCCC2)c1)N1CCCCC1,Potency,[1],"inconclusive [activator, single point]"
CCCCN1Cc2cc(C(=O)c3cc(F)ccc3O)cnc2NC1=O,Potency,[1],"inconclusive [activator, single point]"
Cc1cccc(S(=O)(=O)Nc2cccc3c2C(=O)c2ccccc2-3)c1,Potency,[1],"inconclusive [activator, partial curve, poor fit]"
Cc1ccc(CNC(=O)c2cn(C3CCCCC3)c(=O)c3c2c2ccccc2n3C)o1,Potency,[1],"inconclusive [activator, single point]"
COc1ccc(-n2c(CCC(=O)O)ccc2-c2ccc(F)cc2)c(OC)c1,Potency,[1],inactive
O=C(Nc1cccc(C(F)(F)F)c1)c1cccnc1,Potency,[1],inactive
CCn1c(=NC(=O)CSC(C)=O)sc2ccccc21,Potency,[1],"inconclusive [activator, partial curve, poor fit]"
COC(=O)c1c(C(=O)OC)c(-c2ccc(Cl)cc2)n2c1CS(=O)(=O)C2,Potency,[1],"inconclusive [activator, single point]"
COc1cccc(NC(=O)Nc2ccc(Cc3ccncc3)cc2)c1,Potency,[1],"inconclusive [activator, single point]"
CCS(=O)c1ccccc1C(=O)OCC(=O)N1CCC(c2ccccc2)=N1 (stereo unspecified),Potency,[1],inactive
O=C(NC(O)C(=O)c1ccc(F)cc1)c1ccc(F)cc1 (stereo unspecified),Potency,[1],inactive
CC(=O)c1c(C)[nH]c(C(=O)COC(=O)c2cc(C)oc2C)c1C,Potency,[1],"inconclusive [activator, single point]"
CCN(CC)S(=O)(=O)c1cccc(C(=O)NCC2CCCO2)c1 (stereo unspecified),Potency,[1],active: 23.1 µM
O=C(CCN1C(=O)c2ccccc2S1(=O)=O)Nc1ccccc1O,Potency,[1],inactive
Cn1c(-c2c(N)n(CCCc3ccccc3)c3nc4ccccc4nc23)nc2ccccc21,Potency,[1],"inconclusive [activator, single point]"
O=C(NCc1ccc2c(c1)OCO2)c1ccc(C2SCC(=O)N2Cc2ccco2)cc1 (stereo unspecified),Potency,[1],inactive
COc1ccc(NS(=O)(=O)c2cc(NC(=O)C(CC(C)C)NC(N)=O)ccc2N2CCOCC2)cc1 (stereo unspecified),Potency,[1],inactive
Cc1ccccc1CN1CCN(S(=O)(=O)c2ccc(Cl)s2)CC1,Potency,[1],inactive
N#C/C(=C\c1ccc(Cl)cc1)c1nc2ccccc2o1,Potency,[1],"inconclusive [activator, single point]"
COc1ccc(Cl)cc1C(=O)OCC(=O)Nc1sccc1C(N)=O,Potency,[1],inactive
CCOc1ccc(-c2nc(CN3CCCCC3CCn3cccn3)c(C)o2)cc1 (stereo unspecified),Potency,[1],"inconclusive [activator, full curve, poor fit]"
C=CCn1c(Cc2cccs2)nnc1SC/C=C/c1ccccc1,Potency,[1],"inconclusive [activator, partial curve, poor fit]"
CCn1nc(C(=O)OCC(=O)NCCN2C(=O)CSC2=O)c2ccccc2c1=O,Potency,[1],"inconclusive [activator, partial curve, poor fit]"
Cc1sc(-c2ccccn2)nc1OC(=O)c1ccc(Cl)c(Cl)c1,Potency,[1],inactive
CN(C)c1ccc(C(O)c2cc3ccccc3s2)cc1 (stereo unspecified),Potency,[1],"inconclusive [activator, single point]"
COc1ccccc1N1CCN(CCCCCCOc2ccc(F)cc2)CC1,Potency,[1],"inconclusive [activator, partial curve, poor fit]"
CCC(=O)Nc1cc2c3c(c1)CCN3C(=O)CC2,Potency,[1],inactive
O=c1c2cccnc2[nH]c(=S)n1CCCN1CCN(c2ccc(F)cc2)CC1,Potency,[1],inactive
COc1ccc(C(C)=O)cc1COC(=O)Cc1n[nH]c(=O)c2ccccc12,Potency,[1],inactive
CCOC(=O)CSc1nnc(Cc2ccccc2)n1Cc1ccco1,Potency,[1],"inconclusive [activator, single point]"
O=C(NCc1cc(C(F)(F)F)cc(C(F)(F)F)c1)C1CC(c2cccc([N+](=O)[O-])c2)=NO1 (stereo unspecified),Potency,[1],"inconclusive [activator, full curve, poor fit]"
S=c1[nH]nc(C2CCCCC2)n1/N=C/c1ccc(Br)cc1,Potency,[1],"inconclusive [activator, single point]"
COc1cccc(CN2C(=O)c3cccc(N)c3C2=O)c1,Potency,[1],active: 18.4 µM
C=CC[C@@H](CC(=O)N(CCO)Cc1ccccc1)C(=O)N[C@H](COC(=O)[C@@H](CC=C)CC(=O)OC(C)(C)C)Cc1ccccc1,Potency,[1],inactive
CC(C)(C)OC(=O)N1CCC(C(=O)N[C@@H](Cc2ccccc2)C(=O)O)(c2ccccc2)CC1,"activity, positive = re-replication",[1],inconclusive: 102% [activator]
same,"activity, positive = re-replication",at 46.1 µM (top of the series),inactive: 6.61%
CCOc1ccc2nc(N3CCCC(C(=O)NCCCN4CCOCC4)C3)sc2c1 (stereo unspecified),Potency,[1],"inconclusive [activator, partial curve]"
COc1cc2c(CCNC(C)=O)c[nH]c2cc1O,Potency,[1],inactive
COc1ccc(N2CCN(c3ncnc4scc(-c5ccccc5)c34)CC2)cc1,Potency,[1],"inconclusive [activator, partial curve]"
COc1nnc(-c2ccc(C)c(S(=O)(=O)N(C)C)c2)c2ccccc12,Potency,[1],"inconclusive [activator, single point]"
CCOc1ccc2[nH]c(=O)c(CN(Cc3ccccc3OC)C(=O)c3ccccc3)cc2c1,Potency,[1],active: 20.6 µM
CC(Sc1nc2cc(Cl)ccc2s1)C(=O)Nc1cccc(S(=O)(=O)N2CCOCC2)c1 (stereo unspecified),Potency,[1],"inconclusive [activator, single point]"
O=C(Nc1ccc(Cl)cn1)C1C(c2ccccc2)C1(Cl)Cl (stereo unspecified),Potency,[1],"inconclusive [activator, single point]"
COC(=O)c1ccc(S(=O)(=O)N2CCN(CCO)CC2)n1C,Potency,[1],"inconclusive [activator, partial curve, poor fit]"
Cc1ccccc1OC(C)C(=O)N1CCC(Cc2ccccc2)CC1 (stereo unspecified),Potency,[1],"inconclusive [activator, partial curve, poor fit]"
O=C(CNC(=O)c1cccs1)Nc1ccc2c(c1)OCCO2,Potency,[1],inactive
COc1ccc(C2c3c(ncn(Cc4ccco4)c3=N)Oc3ccc4ccccc4c32)cc1 (stereo unspecified),Potency,[1],"inconclusive [activator, single point]"
C#CC(C)(CC)NC(=O)c1cc2nc(C3CC3)cc(C(F)(F)F)n2n1 (stereo unspecified),Potency,[1],"inconclusive [activator, partial curve, poor fit]"
O=C(CN1CCN(c2ccc(F)cc2)CC1)Nc1ccccc1[N+](=O)[O-],Potency,[1],inactive
CC(C)N=c1scc(-c2cccs2)n1/N=C/c1ccc(O)c(O)c1O,Potency,[1],"inconclusive [activator, single point]"
CCC(=O)Nc1cccc(NC(=S)NC(=O)c2ccc(Cl)cc2Cl)c1,Potency,[1],inactive
CCc1cccc2c1Sc1ccccc1CC2N1CCNCC1 (stereo unspecified),Potency,[1],"inconclusive [activator, single point]"
Brc1cccc(CNCC2CCCO2)c1 (stereo unspecified),Potency,[1],"inconclusive [activator, single point]"
c1ccc(C(c2ccccc2)N2CCN(c3nc4ccccc4n4cnnc34)CC2)cc1,Potency,[1],active: 7.31 µM
